Test results from article PMC6756068, “The NF2 tumor suppressor merlin interacts with Ras and RasGAP, which may modulate Ras signaling” (Oncogene, 2019).
Results are given in words; binding and its absence hold for the method and conditions named. In cells and extracts the contact can be indirect. Some entries that bind do so weakly or less than the wild type. For some of these results: Where a sequence is shown, tags or fusion partners need not be part of it. One block for each molecule: values may come before it.

Sequences of proteins named here, by UniProt entry; tags and fusion partners are left off.
UniProt P26038: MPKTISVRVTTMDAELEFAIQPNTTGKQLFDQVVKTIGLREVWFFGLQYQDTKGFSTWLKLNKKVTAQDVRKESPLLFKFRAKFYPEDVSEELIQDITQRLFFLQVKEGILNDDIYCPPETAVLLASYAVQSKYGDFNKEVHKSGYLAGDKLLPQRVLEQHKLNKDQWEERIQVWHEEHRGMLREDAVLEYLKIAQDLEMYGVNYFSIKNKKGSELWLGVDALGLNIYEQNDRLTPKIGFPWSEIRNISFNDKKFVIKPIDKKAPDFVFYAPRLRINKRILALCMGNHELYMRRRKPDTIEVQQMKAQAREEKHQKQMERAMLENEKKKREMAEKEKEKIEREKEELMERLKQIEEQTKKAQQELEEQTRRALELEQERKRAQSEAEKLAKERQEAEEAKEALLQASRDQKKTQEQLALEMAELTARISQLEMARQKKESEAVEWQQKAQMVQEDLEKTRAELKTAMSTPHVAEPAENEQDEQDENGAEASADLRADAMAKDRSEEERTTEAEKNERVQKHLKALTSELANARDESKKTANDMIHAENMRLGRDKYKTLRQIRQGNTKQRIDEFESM

Key:
GST-RasGAP FL = target: T1, GST-RasGAP FL (UniProt P20936); assay: pull-down; GST-RasGAP fragments pull down merlin from indicated cell lysates; western blot; only the target purified
T1 sequence: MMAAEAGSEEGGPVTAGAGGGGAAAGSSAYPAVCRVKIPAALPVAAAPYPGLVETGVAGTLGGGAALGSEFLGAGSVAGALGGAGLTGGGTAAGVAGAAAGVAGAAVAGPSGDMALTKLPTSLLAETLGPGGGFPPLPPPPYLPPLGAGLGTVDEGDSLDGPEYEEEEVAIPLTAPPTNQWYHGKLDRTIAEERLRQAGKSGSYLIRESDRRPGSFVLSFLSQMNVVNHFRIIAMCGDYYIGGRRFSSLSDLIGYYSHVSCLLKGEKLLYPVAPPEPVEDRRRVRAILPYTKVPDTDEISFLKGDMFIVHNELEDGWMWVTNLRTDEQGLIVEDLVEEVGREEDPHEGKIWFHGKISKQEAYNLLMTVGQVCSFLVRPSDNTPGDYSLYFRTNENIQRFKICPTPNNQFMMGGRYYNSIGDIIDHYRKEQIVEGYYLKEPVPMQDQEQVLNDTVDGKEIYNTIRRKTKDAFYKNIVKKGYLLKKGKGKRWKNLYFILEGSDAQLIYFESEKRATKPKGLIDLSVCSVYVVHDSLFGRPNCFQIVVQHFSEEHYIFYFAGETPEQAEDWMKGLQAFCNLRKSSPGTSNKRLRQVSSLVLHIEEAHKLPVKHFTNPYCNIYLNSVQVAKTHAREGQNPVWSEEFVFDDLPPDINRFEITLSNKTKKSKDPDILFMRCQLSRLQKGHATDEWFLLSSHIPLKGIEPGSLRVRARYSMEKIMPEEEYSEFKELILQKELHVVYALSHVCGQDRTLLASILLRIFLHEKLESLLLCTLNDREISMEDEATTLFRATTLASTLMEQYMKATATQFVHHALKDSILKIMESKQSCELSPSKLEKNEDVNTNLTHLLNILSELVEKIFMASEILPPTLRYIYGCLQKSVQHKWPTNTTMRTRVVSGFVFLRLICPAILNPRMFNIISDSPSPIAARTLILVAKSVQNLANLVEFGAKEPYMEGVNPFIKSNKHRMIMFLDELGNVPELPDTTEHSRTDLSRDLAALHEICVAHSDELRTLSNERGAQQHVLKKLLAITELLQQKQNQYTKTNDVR

[1] = target: T2, GST-RasGAP (construct not told; GST pull-downs of Figures S5 and S6) (UniProt P20936); assay: pull-down; GST pulldown with the lysate from 293 cells, which express all ERMs and merlin; only the target purified
T2 sequence: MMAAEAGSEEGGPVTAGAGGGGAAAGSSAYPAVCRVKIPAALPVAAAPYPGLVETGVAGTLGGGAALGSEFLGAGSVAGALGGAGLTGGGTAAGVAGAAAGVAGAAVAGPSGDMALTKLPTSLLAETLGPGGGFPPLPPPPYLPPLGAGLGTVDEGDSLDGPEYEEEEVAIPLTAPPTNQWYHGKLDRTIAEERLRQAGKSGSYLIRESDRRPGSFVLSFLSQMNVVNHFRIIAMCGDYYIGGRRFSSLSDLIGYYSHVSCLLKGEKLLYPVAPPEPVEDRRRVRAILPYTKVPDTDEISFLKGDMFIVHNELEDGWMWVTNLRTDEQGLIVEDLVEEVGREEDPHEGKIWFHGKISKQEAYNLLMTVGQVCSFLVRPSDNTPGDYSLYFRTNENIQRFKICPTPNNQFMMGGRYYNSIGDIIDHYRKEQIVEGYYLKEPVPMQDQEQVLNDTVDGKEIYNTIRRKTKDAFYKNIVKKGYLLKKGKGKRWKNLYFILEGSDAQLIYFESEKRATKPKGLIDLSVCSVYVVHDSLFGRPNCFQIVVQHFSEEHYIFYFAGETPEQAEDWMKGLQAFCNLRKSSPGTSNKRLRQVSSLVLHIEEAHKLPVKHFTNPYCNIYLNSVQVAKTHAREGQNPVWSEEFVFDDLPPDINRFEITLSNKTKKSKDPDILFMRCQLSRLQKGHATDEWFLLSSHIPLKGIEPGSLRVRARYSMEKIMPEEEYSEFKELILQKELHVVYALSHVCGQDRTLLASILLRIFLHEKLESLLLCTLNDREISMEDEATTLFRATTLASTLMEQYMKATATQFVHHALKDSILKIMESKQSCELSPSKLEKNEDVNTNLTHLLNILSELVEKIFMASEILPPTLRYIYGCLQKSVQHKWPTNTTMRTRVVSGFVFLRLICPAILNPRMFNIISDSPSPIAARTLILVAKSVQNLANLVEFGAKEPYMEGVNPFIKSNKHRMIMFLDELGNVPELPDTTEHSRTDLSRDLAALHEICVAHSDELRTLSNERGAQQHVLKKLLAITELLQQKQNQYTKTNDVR

[2] = target: T2, GST-RasGAP (construct not told; GST pull-downs of Figures S5 and S6); assay: pull-down; GST pulldown of merlin iso1 and iso2 S518A overexpressed in 293 cells; only the target purified
[3] = target: GST-merlin FERM (aa 1–313) (UniProt P35240); assay: pull-down; GST-merlin fragments pull down nontagged FL KRas4B overexpressed in 293 cells by transient transfection; western blot; only the target purified
[4] = target: T3, endogenous merlin of RT4 cells (rat (endogenous in RT4)) (UniProt Q63648); assay: co-IP; endogenous proteins from confluent RT4 cells; western blot
T3 sequence: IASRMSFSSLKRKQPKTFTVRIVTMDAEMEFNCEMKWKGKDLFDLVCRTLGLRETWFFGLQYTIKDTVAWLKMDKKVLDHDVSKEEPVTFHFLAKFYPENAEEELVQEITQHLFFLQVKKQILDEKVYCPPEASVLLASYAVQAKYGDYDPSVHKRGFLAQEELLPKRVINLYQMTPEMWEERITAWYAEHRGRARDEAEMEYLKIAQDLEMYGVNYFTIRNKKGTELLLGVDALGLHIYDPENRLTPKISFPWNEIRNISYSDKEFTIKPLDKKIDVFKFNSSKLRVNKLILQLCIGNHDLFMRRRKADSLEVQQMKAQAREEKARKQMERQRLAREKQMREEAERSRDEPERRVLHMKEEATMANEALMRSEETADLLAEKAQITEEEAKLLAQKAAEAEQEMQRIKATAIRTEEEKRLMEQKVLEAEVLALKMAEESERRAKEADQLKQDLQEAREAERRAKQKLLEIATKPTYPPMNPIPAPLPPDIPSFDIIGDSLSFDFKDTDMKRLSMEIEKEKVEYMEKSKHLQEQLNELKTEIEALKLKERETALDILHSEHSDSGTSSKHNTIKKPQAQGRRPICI

GST-merlin S518A = GST-merlin S518A (UniProt P35240); assay: pull-down; GST-merlin S518A with lysate from RT4/Tet-NF2 S518D cells; western blot; only the target purified

binding (GST-RasGAP FL): binds
Molecule: merlin S518A in cell lysate (from UniProt P35240 1-595)

binding [4]: binds | binding (GST-merlin S518A): binds
B1: endogenous RasGAP of RT4 cells (protein, UniProt P50904 1-1038)
chain: MMAAEAGSEEGGPATAGTGGAAATGSSAYPAACRVKLPAAPPMAVAPCPGLADTDLAAALGGGAASGSGFLGTGPVSGVLGGAALTGGAAAGVAGAAAAGPAGDIALTKGTLSLPAETLGPGGGFPPLPPPPLLPPLGSGLGTVDEGDSLDGPEYEEEEVAIPLTAPPTNQWYHGKLDRTIAEERLRQAGKSGSYLIRESDRRPGSFVLSFLSQTNVVNHFRIIAMCGDYYIGGRRFSSLSDLIGYYSHVSCLLKGEKLLYPVAPPEPVEDRRRVRAILPYTKVPDTDEISFLKGDMFIVHNELEDGWMWVTNLRTDEQGLIVEDLVEEVGREEDPHEGKIWFHGKISKQEAYNLLMTVGQVCSFLVRPSDNTPGDYSLYFRTNENIQRFKICPTPNNQFMMGGRYYNSIGDIIDHYRKEQIVEGYYLKEPVPMQDQGQVLNDTVDGKEIYNTIRRKTKDAFYKNIVKKGYLLKKGKGKRWKNLYFILEGSDAQLIYFESEKRATKPKGLIDLSVCSVYVVHDSLFGRPNCFQIVVQHFSEEHYIFYFAGETPEQAEDWMKGLQAFCSLRKSSPGTSNKRLRQVSSLVLHIEEAHKLPVKHFTNPYCNIYLNSVQVAKTHAREGQNPVWSEEFVFDDLPPDINRFEITLSNKTKKSKDPDILFMRCQLSRLQKGHATDEWFLLSSHIPLKGIEPGSLRVRARYSMEKIMPEEEYSEFKELILQKELHVVYALSHVCGQDRTLLASILLKIFLHEKLESLLLCTLNDREISMEDEATTLFRATTLASTLMEQYMKATATQFVHHALKDSILKIMESKQSCELSPSKLEKNEDVNTNLAHLLSILSELVEKIFMASEILPPTLRYIYGCLQKSVQHKWPTNNTMRTRVVSGFVFLRLICPAILNPRMFNIISDSPSPIAARTLTLVAKSVQNLANLVEFGAKEPYMEGVNPFIKSNKHRMIMFLDELGNVPELPDTTEHSRTDLSRDLAALHEICVAHSDELRTLSNERGVQQHVLKKLLAITELLQQKQNQYTKTNDVR

The next lines start with the molecule.

Molecule: merlin S518D in cell lysate (from UniProt P35240 1-595)
binding (GST-RasGAP FL): binds

Molecule: moesin of 293 cells (from UniProt P26038 1-577)
binding [1]: no binding

Molecule: merlin isoform 1 S518A overexpressed in 293 cells (from UniProt P35240 1-595)
binding [2]: binds

Molecule: nontagged full-length KRas4B (from UniProt P01116-2 1-188)
binding [3]: binds
